Laboratory results taken from PubChem BioAssay AID686971 (National Center for Advancing Translational Sciences (NCATS), 2013).
Among all 360,000 compounds or so, about 7,500 (2.1%) were called active. Inconclusive results, whose numbers are uncertain, are shown with a selection of clear calls. The call rests on the fitted dose curve; in most records, active means well fitted cell-killing curve with a large enough effect; inconclusive means small, poorly fitted or top-dose-only effect, or effect the other way, or another doubt; inactive means no such curve, though single readings can be large or run the other way. No potency is given beside an inconclusive call; the fits are too rough.

Assay: qHTS for induction of synthetic lethality in tumor cells producing 2HG: qHTS for the HT-1080-IDH1KD cell line;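 on activity, negative = toxicity: 0% = DMSO wells and -100% = cell-free medium wells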
Conditions: HT-1080 IDH1 knockdown viability, ATP luminescence, 48 h; activity, negative = toxicity: at 46.1 µM (top of the series) unless noted
Summary of the method: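 CellTiter-Glo luminescence after 48 h compound exposure at 37 degrees C of IDH1-knockdown HT-1080 cells in 5% FBS RPMI. %Activity scaled between DMSO wells and cell-free media wells, with curves fitted and assigned curve classes.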
Potency means the concentration at half of the fitted maximal effect; tags describe the fitted curve by direction and shape.

SMILES | Potency | activity, negative = toxicity
O=C(OCC(=O)N1CCN(C(=O)c2ccco2)CC1)c1ccccc1NCCO | inactive | –
COc1cc(S(=O)(=O)N2CCN(C(=O)c3ccco3)CC2)ccc1Cl | inactive | –
Cc1cc(=O)oc2cc(OCCC[n+]3ccccc3)ccc12 | inactive | –
COc1ccc(C=CC(=O)C=CC=Cc2ccccc2)cc1 | inconclusive [cytotoxic, single point] | –
CCN1C(=O)[C@H]2[C@@H](c3ccc(-c4ccc(F)cc4)cc3)N[C@@](CC(C)C)(C(=O)OC)[C@H]2C1=O | inactive | –
COC(=O)CN(c1ccccc1OC)S(=O)(=O)c1ccccc1 | inactive | –
COC(=O)c1c(NC(=S)NN2CCN(C)CC2)sc2c1CCC(C)C2 (stereo unspecified) | active: 16.4 µM | –
O=C1C(=O)c2ccccc2C([O-])=C1[n+]1ccccc1 | inactive | –
Cc1ccc(NC(=O)c2ncn(CCCNCC(C)c3ccccc3)n2)cc1C (stereo unspecified) | inactive | –
COc1ccc(-c2ccc([C@H]3[C@@H]4C=CCC[C@@]4(C)C(=O)N3Cc3ccccc3)c(F)c2)cc1OC | inconclusive [cytotoxic, single point] | –
COc1cc(C(=O)N(C)CC2CCN(CCc3cccc(C(F)(F)F)c3)CC2)ccc1C | inconclusive [cytotoxic, single point] | –
Cc1cc2c(NCc3ccccc3)ncnc2s1 | inconclusive [cytotoxic, single point] | –
Cc1ccc(C(=O)N/N=C/c2cc(Br)ccc2O)cn1 | inconclusive [cytotoxic, full curve] | –
CC1(C)CC(=O)C2=C(C1)Oc1nc3ccccc3cc1C2C(C#N)C#N (stereo unspecified) | active: 23.1 µM | –
Oc1ccc(C2Nc3cccc4cccc(c34)N2)c(O)c1 | inconclusive [cytotoxic, single point] | –
O=C(CSc1nnc(Cc2ccccc2)n1Cc1ccco1)NC12CC3CC(CC(C3)C1)C2 | inconclusive [cytotoxic, single point] | –
O=C(OCc1ccccc1)N(CCF)c1cn(Cc2ccccc2)c(=O)n(Cc2ccccc2)c1=O | inactive | –
O=C(OC1CCOC1=O)c1ccccc1C(=O)c1ccc(Cl)c([N+](=O)[O-])c1 (stereo unspecified) | inconclusive [cytotoxic, single point] | –
CCOC(=O)Nc1cc(OC)c(OC)cc1Cc1nccc2cc(OC)c(OC)cc12 | inconclusive [cytotoxic, single point] | –
C=CC(=O)N1c2ccccc2Sc2ccc(NC(=O)OCC)cc21 | inconclusive [cytotoxic, partial curve] | –
O=C(Nc1cccc2ccccc12)OC1C=CS(=O)(=O)C1 (stereo unspecified) | inconclusive [cytotoxic, single point] | –
COC(=O)Cc1c(C)c2ccc(OCC(=O)N(C)C)cc2oc1=O | inconclusive [rising, full curve] | –
O=C(/C=C/c1cn(-c2ccccc2)nc1-c1ccc2c(c1)OCCO2)NCCCN1CCOCC1 | active: 20.6 µM | –
O=C(Nc1cccc(S(=O)(=O)NC2=NCCC2)c1)c1cc(-c2ccccn2)nc2ccccc12 | inconclusive [cytotoxic, single point] | –

SMILES | Potency | activity, negative = toxicity
Cc1ccccc1Cn1c2ccccc2c2cnn(CC(=O)NCCCN3CCOCC3)c(=O)c21 | inconclusive [cytotoxic, single point] | –
CC(SC#N)C(=O)C12CC3CC(CC(C3)C1)C2 (stereo unspecified) | active: 16.4 µM | –
COc1ccc(CCNC(=S)N(C)C)cc1OC | inconclusive [rising, single point] | –
Cc1cc(C)cc(N(C(=O)c2ccccn2)C(C(=O)NC2CCCCC2)c2ccncc2)c1 (stereo unspecified) | inactive | –
COc1ccc(/C=N/Nc2cc(C)nc3c(C)cccc23)cc1 | inconclusive [cytotoxic, single point] | –
CCN(CC(=O)NC(=O)NCc1ccccc1)CC(=O)Nc1cc(Cl)ccc1C | inconclusive [cytotoxic, single point] | –
COc1cccc(NS(=O)(=O)c2ccc3[nH]cc(C(=O)NCCC(C)C)c(=O)c3c2)c1 | inconclusive [cytotoxic, partial curve] | –
CC1(C)CC(=O)C(C(=O)/C=C/NCCc2ccccc2)C(=O)C1 | inconclusive [cytotoxic, single point] | –
C#CCOCCOCCOCCNc1nc(N2CCN(C(=O)CCCCCCCCCCNC(=O)Cn3cc(C[C@@H](C)O)nn3)CC2)nc(N2CCN(C(=O)CCCCCCCCCCNC(=O)[C@H](CCCCN)n3cc(C[C@@H](C)CC)nn3)CC2)n1 | active: 20.6 µM | –
Cc1cc(C)c(-c2csc(NC(=O)c3n[nH]c(=O)c4ccccc34)n2)c(C)c1 | inconclusive [cytotoxic, partial curve] | –
O=C(Nc1ccc(N2CCOCC2)c2nonc12)C1CCCC1 | inactive | –
Cc1nn(C)c(C)c1N1C(=O)c2cccc3c(Br)ccc(c23)C1=O | inconclusive [cytotoxic, single point] | –
COc1ccccc1-c1nc(-c2ccccn2)no1 | active: 23.1 µM | –
CC(=O)Nc1ccc(-c2ccnc3c2CC(C)(C(=O)Nc2ccccc2)O3)cc1 (stereo unspecified) | inconclusive [cytotoxic, partial curve] | –
Cc1ccc(C(=O)N2CCN(C)CC2)cc1S(=O)(=O)N1CCCCCC1 | inactive | –
Cc1ccc2c(c1)CCCN2C(=O)c1cccs1 | inconclusive [cytotoxic, partial curve] | –
O=[N+]([O-])c1cccc2c(N3CCCC3)ccnc12 | inconclusive [cytotoxic, partial curve] | –
CCOc1ccc(N(CC(=O)Nc2ccccc2OC)S(C)(=O)=O)cc1 | inconclusive [cytotoxic, single point] | –
CCN(C[C@H]1N[C@@](CC)(C(=O)OC)[C@H]2C(=O)N(C)C(=O)[C@@H]12)S(=O)(=O)c1ccc(OC(F)(F)F)cc1 | inactive | –
COc1cc2c[n+](C)c3c4ccccc4ccc3c2cc1OC | active: 16.4 µM | –
COc1ccc(-c2cnc3c(NC=O)cc(-c4ccc(S(C)(=O)=O)cc4)cn23)cc1OC | – | inconclusive: -16.7% [cytotoxic]
O=C1CC(c2ccccc2)CC2=C1C=Nc1ccccc1N2 (stereo unspecified) | inconclusive [cytotoxic, single point] | –
CSc1cc(-c2ccc(Cl)cc2)c(C(=O)NN)s1 | inconclusive [cytotoxic, single point] | –
Cc1[nH]c2ccccc2c1/C=N/Nc1nc2ccccc2[nH]1 | active: 18.4 µM | –

SMILES | Potency | activity, negative = toxicity
CN(CC(=O)Nc1cccc(F)c1)C(=O)c1ccc(OCc2cn3ccccc3n2)cc1 | inactive | –
CC1CCCCN1CCCNC(=O)c1ccc2nc(N3CCCCC3)sc2c1 (stereo unspecified) | inactive | –
O=C(CNC(=O)C(c1ccccc1)c1ccccc1)N/N=C\c1ccc2c(c1)OCO2 | inconclusive [cytotoxic, single point] | –
O=C(COC(=O)c1ccc(OC(F)F)cc1)NCCC1=CCCCC1 | inactive | –
CC(NC(=O)CCC(=O)c1ccc(F)cc1)C1CC2CCC1C2 (stereo unspecified) | inactive | –
CCOC(=O)C1=C2N(C)c3ccccc3N2CCC1=O | inactive | –
COc1ccc(-c2coc3c(C(=O)Nc4cccc(NS(C)(=O)=O)c4)cccc23)c(C)c1 | inconclusive [cytotoxic, single point] | –
S=C(NCc1cccnc1)Nc1ccc(Oc2ccc(Cl)cc2)cc1 | inconclusive [cytotoxic, partial curve] | –
Cc1cc(Cl)ccc1C(O)c1ncc(-c2ccc(C(F)(F)F)cc2)[nH]1 (stereo unspecified) | inconclusive [cytotoxic, single point] | –
O=C(O)c1ccccc1NC(=O)C1CCN(S(=O)(=O)c2cccc3nsnc23)CC1 | inactive | –
CCN1C(=O)C(CC(=O)Nc2ccc(OC)cc2)N(CCc2ccccc2F)C1=S (stereo unspecified) | – | inconclusive: -33.5% [cytotoxic]
COc1cccc(-c2nn(C)c3sc(C(=O)NCc4ccco4)cc23)c1 | inconclusive [cytotoxic, partial curve] | –
CC(C)C[C@@H]1NC(=O)N(CCN2CCOCC2)C1=O | inactive | –
COc1ccc(NC(=O)c2ccncc2)cc1S(=O)(=O)N1CCCCC1 | inactive | –
O=C(Nc1cc([N+](=O)[O-])c2[nH]c(=O)c3ccccc3c2c1)C(F)(F)F | – | inconclusive: -16.1% [cytotoxic]
CS(=O)(=O)n1nc(-c2ccc(Cl)cc2)nc1SCc1ccccc1 | inconclusive [cytotoxic, single point] | –
Oc1c(C=Nc2cccc3nsnc23)ccc2ccccc12 | inconclusive [cytotoxic, single point] | –
Cc1ccc(S(=O)(=O)NCc2ccc(C(=O)NCCN(Cc3ccccc3)C(C)C)cc2)cc1 | inconclusive [cytotoxic, single point] | –
COc1ccc(NC(=O)Cn2ncc(Cl)c(Cl)c2=O)cc1S(=O)(=O)N1CCOCC1 | active: 20.6 µM | –
Nc1c(C(=O)Nc2ccc(S(=O)(=O)N3CCCC3)cc2)sc2nc3cc4c(cc3cc12)CCC4 | – | inconclusive: -16.3% [cytotoxic]
CC1(C)N=C(N)N=C(N)N1c1ccc(OCC(=O)Nc2ccccc2)c(Cl)c1 | active: 0.366 µM | –
CC(=O)Nc1cccc(-c2csc(Nc3ccc(C)cn3)n2)c1 | inconclusive [cytotoxic, single point] | –
CCOC(=O)C1=C[C@@H](C(C)(C)C)N(S(=O)(=O)c2ccc(C)cc2)[C@H]1c1ccccc1Cl | inconclusive [cytotoxic, single point] | –
